Changes are numbered by the printed parent chain; changes in the protein carry UniProt numbers. The list shows a part of the results.
T1: RBFOX1 RRM RbFoxmut (Fox-RRM*) (Homo sapiens, UniProt Q9NWB1 109-208, R118D;E147R;N151S;E152T)
T1 sequence: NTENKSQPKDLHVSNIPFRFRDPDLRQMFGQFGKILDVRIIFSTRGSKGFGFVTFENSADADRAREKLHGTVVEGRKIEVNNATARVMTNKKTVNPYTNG

B1: UGUGUAA (DNA:RNA)
RNA: GGGAGACCGGAAUUCAGAUUGUCCUGUGUAAUUAAAUCCCGUCGUAGCCACCA
DNA 1: CAATCTGAATTCCGGTCTCCC
DNA 2: TGGTGGCTACGACGGGATT
B2: GCCGCCC (DNA:RNA)
RNA: B1 RNA with U25G, G26C, U27C, U29C, A30C, A31C
DNA 1: CAATCTGAATTCCGGTCTCCC
DNA 2: TGGTGGCTACGACGGGATT
B3: ACGAAAC (DNA:RNA)
RNA: B1 RNA with U25A, G26C, U27G, G28A, U29A, A31C
DNA 1: CAATCTGAATTCCGGTCTCCC
DNA 2: TGGTGGCTACGACGGGATT
B4: AACAAUG (DNA:RNA)
RNA: GGGAGACCGGAAUUCAGAUUGUCCAACAAUGUUAAAUCCCGUCGUAGCCACCA
DNA 1: CAATCTGAATTCCGGTCTCCC
DNA 2: TGGTGGCTACGACGGGATT
B5: ACUUCCU (DNA:RNA)
RNA: B4 RNA with A26C, C27U, A28U, A29C, U30C, G31U
DNA 1: CAATCTGAATTCCGGTCTCCC
DNA 2: TGGTGGCTACGACGGGATT
B6: UGCGAAC (DNA:RNA)
RNA: B1 RNA with U27C, U29A, A31C
DNA 1: CAATCTGAATTCCGGTCTCCC
DNA 2: TGGTGGCTACGACGGGATT
B7: ACUGAUU (DNA:RNA)
RNA: B4 RNA with A26C, C27U, A28G, G31U
DNA 1: CAATCTGAATTCCGGTCTCCC
DNA 2: TGGTGGCTACGACGGGATT
B8: AGGGAAG (DNA:RNA)
RNA: B4 RNA with A26G, C27G, A28G, U30A
DNA 1: CAATCTGAATTCCGGTCTCCC
DNA 2: TGGTGGCTACGACGGGATT
B9: UCCGGAC (DNA:RNA)
RNA: B1 RNA with G26C, U27C, U29G, A31C
DNA 1: CAATCTGAATTCCGGTCTCCC
DNA 2: TGGTGGCTACGACGGGATT
B10: GCACGGC (DNA:RNA)
RNA: GGGAGACCGGAAUUCAGAUUGUCCGCACGGCUUAAAUCCCGUCGUAGCCACCA
DNA 1: CAATCTGAATTCCGGTCTCCC
DNA 2: TGGTGGCTACGACGGGATT
B11: UGUUGAG (DNA:RNA)
RNA: B1 RNA with G28U, U29G, A31G
DNA 1: CAATCTGAATTCCGGTCTCCC
DNA 2: TGGTGGCTACGACGGGATT
B12: GCUCGGA (DNA:RNA)
RNA: B10 RNA with A27U, C31A
DNA 1: CAATCTGAATTCCGGTCTCCC
DNA 2: TGGTGGCTACGACGGGATT
B13: UGCGGCG (DNA:RNA)
RNA: B1 RNA with U27C, U29G, A30C, A31G
DNA 1: CAATCTGAATTCCGGTCTCCC
DNA 2: TGGTGGCTACGACGGGATT
B14: GAAUAUC (DNA:RNA)
RNA: B4 RNA with A25G, C27A, A28U, G31C
DNA 1: CAATCTGAATTCCGGTCTCCC
DNA 2: TGGTGGCTACGACGGGATT
B15: ACCUUUA (DNA:RNA)
RNA: B4 RNA with A26C, A28U, A29U, G31A
DNA 1: CAATCTGAATTCCGGTCTCCC
DNA 2: TGGTGGCTACGACGGGATT
B16: AUUAAUU (DNA:RNA)
RNA: B4 RNA with A26U, C27U, G31U
DNA 1: CAATCTGAATTCCGGTCTCCC
DNA 2: TGGTGGCTACGACGGGATT
B17: AGAACAG (DNA:RNA)
RNA: B4 RNA with A26G, C27A, A29C, U30A
DNA 1: CAATCTGAATTCCGGTCTCCC
DNA 2: TGGTGGCTACGACGGGATT
B18: CACGAUG (DNA:RNA)
RNA: B4 RNA with A25C, A28G
DNA 1: CAATCTGAATTCCGGTCTCCC
DNA 2: TGGTGGCTACGACGGGATT
B19: CCAUCGG (DNA:RNA)
RNA: B10 RNA with G25C, C28U, G29C, C31G
DNA 1: CAATCTGAATTCCGGTCTCCC
DNA 2: TGGTGGCTACGACGGGATT
B20: AGGCCUA (DNA:RNA)
RNA: B4 RNA with A26G, C27G, A28C, A29C, G31A
DNA 1: CAATCTGAATTCCGGTCTCCC
DNA 2: TGGTGGCTACGACGGGATT

Target: T1, RBFOX1 RRM RbFoxmut (Fox-RRM*)
Assay: EMSA; HiTS-Eq, 1 nM pool, 10 min; buffer printed only for the single-RNA assays: 10 mM Tris pH 7.5, 150 mM NaCl, 3.4 mM EDTA, 0.001% NP-40, 30 C
Conditions: tags: His6 N-terminal (pET28a); label: 5' 32P
Summary of the method: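 Purified wild-type or mutant RbFox RRM at increasing concentrations was equilibrated with 1 nM of 5′-radiolabelled RNA carrying 7 randomized nucleotides for 10 min in 50 µL. Unbound RNA was separated by 8% native PAGE and sequenced. Relative association constants came from read-count changes of each RNA species compared with the control reaction, normalised to the cognate motif.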

Binder | binding signal
B1 | 0.111 KA relative to UGCAUGU
B2 | 0.065 KA relative to UGCAUGU
B3 | 0.0863 KA relative to UGCAUGU
B4 | 0.0359 KA relative to UGCAUGU
B5 | 0.0598 KA relative to UGCAUGU
B6 | 0.0784 KA relative to UGCAUGU
B7 | 0.0776 KA relative to UGCAUGU
B8 | 0.144 KA relative to UGCAUGU
B9 | 0.0472 KA relative to UGCAUGU
B10 | 0.232 KA relative to UGCAUGU
B11 | 0.143 KA relative to UGCAUGU
B12 | 0.0688 KA relative to UGCAUGU
B13 | 0.148 KA relative to UGCAUGU
B14 | 0.0888 KA relative to UGCAUGU
B15 | 0.119 KA relative to UGCAUGU
B16 | 0.0885 KA relative to UGCAUGU
B17 | 0.0792 KA relative to UGCAUGU
B18 | 0.103 KA relative to UGCAUGU
B19 | 0.1 KA relative to UGCAUGU
B20 | 0.0817 KA relative to UGCAUGU
